Whole data set: some 33,000 sequences, median “E-score (-0.5 to 0.5)” near -0.011, cut for the highest 2% near 0.28. Some of the results follow.
Target: T1, Gcr1 (UniProt P07261)
T1 sequence: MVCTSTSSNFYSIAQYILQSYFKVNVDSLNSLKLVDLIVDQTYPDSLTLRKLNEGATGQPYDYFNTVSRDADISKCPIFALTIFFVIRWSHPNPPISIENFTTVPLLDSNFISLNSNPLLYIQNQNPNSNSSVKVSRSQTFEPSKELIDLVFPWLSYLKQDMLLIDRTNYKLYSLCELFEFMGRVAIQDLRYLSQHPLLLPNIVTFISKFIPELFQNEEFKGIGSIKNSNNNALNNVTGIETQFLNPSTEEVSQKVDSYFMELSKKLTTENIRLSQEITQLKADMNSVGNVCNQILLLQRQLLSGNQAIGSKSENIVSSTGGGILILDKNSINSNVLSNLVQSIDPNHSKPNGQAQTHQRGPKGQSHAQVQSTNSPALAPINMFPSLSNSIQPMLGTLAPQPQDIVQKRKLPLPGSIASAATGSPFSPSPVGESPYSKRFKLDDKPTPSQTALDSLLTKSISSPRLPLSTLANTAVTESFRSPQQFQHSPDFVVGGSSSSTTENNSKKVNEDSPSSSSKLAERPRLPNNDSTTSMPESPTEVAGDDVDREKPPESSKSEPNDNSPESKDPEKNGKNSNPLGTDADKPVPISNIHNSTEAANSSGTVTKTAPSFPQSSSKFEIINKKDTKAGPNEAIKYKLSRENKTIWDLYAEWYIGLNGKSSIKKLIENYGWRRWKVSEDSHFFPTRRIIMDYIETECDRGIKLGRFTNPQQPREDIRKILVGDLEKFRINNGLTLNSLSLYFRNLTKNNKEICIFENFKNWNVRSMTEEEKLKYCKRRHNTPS
Experiment: PBM E-score (8-mer binding enrichment) (E-score (-0.5 to 0.5)); higher = stronger / more preferred TF binding; most listed sequences are background and not binding sites
Conditions: protein concentration: 100 nM; construct: GST-full length
Outline: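 The E-score, a modified Wilcoxon-Mann-Whitney statistic, was computed by the Universal PBM Analysis Suite for every ungapped eight-base word pooled with its reverse complement. Scans behind it were normalised with masliner after bound GST-tagged yeast transcription factors were detected with fluorescent anti-GST. The proteins, at about 100-200 nM, had been applied to universal all-10-mer Agilent arrays made double-stranded by primer extension.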

Sequence | PBM E-score
GGTTAGCA | -0.0601
CCGAGGTA | -0.0222
GAATTCAA | 0.0565
GAAGCTTC | 0.339
CGACCCAC | -0.0741
AATCTTCA | 0.144
GTGGAGCA | -0.00069
AAGGGTAC | -0.0737
AACAAGTG | 0.0405
AGGAGATC | 0.0885
AGCCTTAA | -0.114
GAACGGAC | -0.105
AAGCATTG | -0.079
ACACTGAT | -0.0612
GTGTTTGA | 0.0925
GGAGCCGA | 0.241
CCCAGTTC | 0.0921
AAGTATTG | -0.0395
TATTTGCA | 0.162
TGTCCACA | 0.109
CAGCACTA | -0.194
GCTCCGAA | 0.0352
AGTATTCC | -0.0142
AGCCGGGG | -0.0742
CACATAGC | -0.125

Sequence | PBM E-score
GAGTAGTA | 0.0471
CCAGTACC | 0.0669
CCTACCCG | 0.00295
ACTATTTA | 0.293
AATCCGCG | -0.164
CGATCGAA | -0.193
ATGGCGCA | -0.122
AACTATCC | -0.0875
AATTCTGT | 0.121
AACAATTA | 0.0853
GGTGGGAC | -0.0594
GCCGAACC | 0.0219
CATCTGAC | -0.242
CTACTTAC | 0.0789
CAATGGCA | -0.159
AGCTATGC | -0.269
CGTTACAC | -0.0307
CTACGCAC | -0.131
ATTACACC | 0.0915
CCAGCGTA | -0.178
CCCTTGGA | -0.0534
ACTGAAAG | -0.0295
GGTGTCCA | 0.236
GCGTTTCA | -0.0887
GTGGTTCA | -0.0637

Sequence | PBM E-score
ACCTTGAT | 0.0821
TGATGTAA | 0.0738
AATGAGAC | -0.149
TCAACCAA | -0.131
AAGCTGCG | 0.15
CGGGCATA | -0.232
CGTTTGGA | 0.109
CTTTGGCC | 0.0991
TAACCGGA | 0.23
CACTACAC | 0.225
AGTCTGTG | -0.266
ACCTCTGC | -0.0524
GGACGTGA | -0.189
AGTACCAG | 0.0431
AATGCTTC | -0.167
GCGATGTA | 0.0104
AATCAGTA | 0.0347
GTTAGAAC | -0.108
AGCTCGGG | 0.0372
ATTACGTA | 0.189
GAGTAAAC | 0.00232
ACTGTGAG | -0.0583
CTATCACA | 0.0182
GCTTACCA | -0.193
TGATATCA | 0.0841

Sequence | PBM E-score
ATAGGATC | 0.158
ATTATGCG | 0.218
TTACCGAA | 0.081
ACCTACTA | 0.0171
CAACATAG | -0.0499
CTTTTTTA | 0.176
CAAACCTA | -0.0633
AGCATTCC | -0.037
AACCAAAG | -0.00576
CCACGGCC | -0.0782
CTCAAATC | -0.0759
AAGAGACA | 0.0358
ACCGCCCA | -0.342
AACAGGGC | 0.0085
GCGTCTCA | 0.146
GCGAACAA | -0.16
CCGGGGTA | -0.111
CCAGGGGG | -0.231
ACTGGCCC | -0.0709
AATGTGGG | 0.021
AAAAATCC | -0.0869
ATTCTGGC | 0.0945
AAAGAAAC | 0.0061
GATCCAGC | 0.0574
CGGGGAAG | 0.0367

Sequence | PBM E-score
AGCTATAA | -0.0221
CAGCGAGA | -0.121
CCACGTAC | -0.016
ATGAGCAC | -0.046
ACGTGAAG | -0.187
CCCTAAGA | 0.11
ACTGATTG | -0.0248
AACCTATT | 0.163
AGGGAACG | 0.0557
CTAAAGAC | -0.0627
AGATATAA | -0.0208
ATCGTTCA | 0.0507
CTTTTTCA | -0.00472
CCAAGACC | -0.248
GCTAGGGA | 0.139
CAACTGCC | 0.176
GGCCTAAC | -0.133
CCATGATC | -0.175
TCAGTGAA | -0.123
ACCTGGCG | -0.162
ATCCACCC | -0.109
CGCCTCAC | -0.23
GCTAAAAC | 0.081
CCCGCTAG | -0.137
CAGAGTTC | -0.138

Sequence | PBM E-score
GAGATAGC | -0.0656
AGTGCCGA | -0.0356
GGTGTCAA | 0.0372
GAACTTCA | -0.0808
ATTAGATA | 0.088
AGCCTCCA | 0.00374
CAACCAAC | -0.102
TTCGGAAA | 0.0651
CCAGGCAC | 0.0853
CCCTCTCG | -0.238
CTCATTGC | -0.125
GAATTTCA | -0.109
GGTACAAC | 0.0843
CTCTGCGC | -0.22
AGTATTGC | 0.195
AGGACGGG | -0.227
TAGCGTAA | -0.0302
CCTGACGA | -0.0975
CGCCCTTC | -0.0575
CTAGCCTA | -0.269
GAAGGAAA | -0.165
TCCTACCA | -0.0385
ATTCCTTG | 0.0515
GCAGTTAA | -0.0197
ACATCTAC | -0.0726

Sequence | PBM E-score
GGGTTCGA | 0.0598
GGGTCAAC | -0.093
TGAGGGCA | -0.0382
AACGCTGT | -0.186
AACGTCAG | -0.316
CATCGTTC | 0.0509
AGCCGCAC | -0.0599
ATTGAACC | -0.0617
CAAATGCG | 0.131
ATTAGGGC | 0.0358
AATATCCC | 0.0593
GCTCCCCC | -0.105
CCAAAAAA | 0.272
AGGCTGAT | 0.00163
GGAGCGAC | -0.0613
GAACTCTA | -0.0935
CGTTGGGC | -0.0925
TCAATTAA | 0.126
ACTCTTGA | -0.15
GGGCATAA | -0.137
GAACGTAC | -0.214
CTCTTTAA | -0.101
